The record followed here is publication PMC4336329 (PLoS ONE, 2015).

In all, about 310,000 compounds went through this assay and about 14,000 (4.5%) showed an effect of 50% or more. The effect is printed as a negative number. The list shows a part of the results.
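Note: peak tail current of the secondary pulse compared with the same well before compound.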

Chain of human ether-à-go-go-related gene (hERG) potassium channel (Q12809 whole entry, looked up): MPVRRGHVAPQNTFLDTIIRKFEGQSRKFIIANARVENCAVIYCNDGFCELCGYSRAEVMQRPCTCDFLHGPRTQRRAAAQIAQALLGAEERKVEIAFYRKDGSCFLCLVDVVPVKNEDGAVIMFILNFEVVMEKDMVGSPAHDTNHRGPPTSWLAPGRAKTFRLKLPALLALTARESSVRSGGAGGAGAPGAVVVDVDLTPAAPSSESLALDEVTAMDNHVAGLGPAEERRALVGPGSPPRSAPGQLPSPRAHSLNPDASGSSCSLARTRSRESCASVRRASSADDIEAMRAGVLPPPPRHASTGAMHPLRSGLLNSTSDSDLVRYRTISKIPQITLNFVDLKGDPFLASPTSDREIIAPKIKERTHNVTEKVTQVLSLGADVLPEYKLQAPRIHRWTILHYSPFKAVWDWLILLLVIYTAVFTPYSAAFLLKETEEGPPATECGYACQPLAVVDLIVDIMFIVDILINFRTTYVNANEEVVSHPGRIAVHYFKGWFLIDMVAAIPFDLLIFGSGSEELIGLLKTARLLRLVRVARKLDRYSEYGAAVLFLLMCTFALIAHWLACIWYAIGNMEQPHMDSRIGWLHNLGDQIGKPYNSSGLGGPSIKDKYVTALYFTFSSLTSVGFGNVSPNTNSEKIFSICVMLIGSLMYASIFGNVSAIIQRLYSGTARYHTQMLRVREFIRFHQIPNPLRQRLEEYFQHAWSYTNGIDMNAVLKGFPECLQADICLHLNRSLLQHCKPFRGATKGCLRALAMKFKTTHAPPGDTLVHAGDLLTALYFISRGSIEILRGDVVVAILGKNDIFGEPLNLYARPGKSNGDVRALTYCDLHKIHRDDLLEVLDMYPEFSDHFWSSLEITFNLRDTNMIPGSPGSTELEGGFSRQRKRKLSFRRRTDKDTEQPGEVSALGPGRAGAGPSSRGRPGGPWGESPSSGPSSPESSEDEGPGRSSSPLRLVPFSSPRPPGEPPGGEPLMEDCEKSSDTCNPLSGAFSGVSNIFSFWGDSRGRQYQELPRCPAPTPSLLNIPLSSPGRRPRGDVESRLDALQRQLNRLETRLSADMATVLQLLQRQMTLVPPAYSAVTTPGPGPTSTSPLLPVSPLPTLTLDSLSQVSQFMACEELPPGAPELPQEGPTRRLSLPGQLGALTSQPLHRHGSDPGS

This test addresses human ether-à-go-go-related gene (hERG) potassium channel (human, UniProt Q12809). The test is described as follows: primary screen, population patch clamp on CHO cells stably expressing hERG.
In the case of `COCc1nnc(NC(=O)C2CC(=O)N(C3CCCC3)C2)s1` (stereo not shown), the “hERG current change (%, negative = inhibition) at 10uM” value was found to be 23.3%.
As for `COc1ccc(CN(C(=O)c2ccco2)c2ccc(Br)cc2)cc1OC`, the “hERG current change (%, negative = inhibition) at 10uM” value is -25.4%.
To `CC(Nc1nc(Nc2ccc(F)cc2)nc(SCC(N)=O)n1)c1ccccc1` (stereo not shown) belongs -5.05%.
On to `Cc1ccc(-n2nnc3c(=O)n(Cc4ccccc4C)cnc32)cc1`, for which the “hERG current change (%, negative = inhibition) at 10uM” value worked out at 16.3%.
For `COc1ccc(CN2CCN(C(=O)Cn3nc(C(=O)O)c4ccccc4c3=O)CC2)cc1F` the value was -37.4%.
For `NNc1ccc2nnc(C(F)(F)C(F)(F)C(F)(F)F)n2n1`, the “hERG current change (%, negative = inhibition) at 10uM” value turned out to be 8.51%.
For `O=C(CN1CCN(S(=O)(=O)c2ccc(Cl)cc2)CC1)NC1CC1` the value was 1.82%.
Take `O=C(/C=C/c1cc2c(cc1Br)OCO2)NCc1ccc(F)cc1`: the “hERG current change (%, negative = inhibition) at 10uM” value is recorded as -0.267%.
As for `O=C(c1cc(F)c(F)cc1Cl)N1CCOCC1`, the “hERG current change (%, negative = inhibition) at 10uM” value is reported as -9.19%.
To `N#Cc1cnn(Cc2ccccc2)c1N` belongs 3.48%.
With `CSc1ccc(Cn2nnc(C(=O)Nc3ccc(C)c(C)c3)c2N)cc1`, the “hERG current change (%, negative = inhibition) at 10uM” value is given as -4.4%.
For `CSCCC(CO)NC(=O)OCc1ccccc1` (stereo not shown) the value was 2.83%; for `Cc1cc2nc(/N=C(\N)NC(=O)N3c4ccccc4Sc4ccccc43)nc(C)c2cc1C`, -38.9%.
To `CC(=O)c1ccccc1OCC(O)CN1CCN(c2ccccn2)CC1.Cl` (stereo not shown) belongs -39%; to `COc1ccccc1NC(=O)c1ccc(NC(=O)CSc2nnnn2C)cc1`, -5.4%; to `CCCCN1C(=O)NC2NC(=O)NC21` (stereo not shown), -6.63%.
To `CCCCN(C(=O)c1ccco1)c1nnc(-c2cc(OC)c(OC)c(OC)c2)s1` belongs -9.62%.
`O=C(CSc1ccc2nnc(-c3cccnc3)n2n1)Nc1ccc(F)cc1F`: the “hERG current change (%, negative = inhibition) at 10uM” value is recorded as -21.5%.
For `CCCC(C(=O)NC(C)(C)C)N(CCN1CCOCC1)C(=O)CNS(=O)(=O)c1ccccc1` (stereo not shown) the value was 17%.
For `O=C(Nc1nc(-c2ccc(-c3ccccc3)cc2)cs1)c1cnccn1`, the “hERG current change (%, negative = inhibition) at 10uM” value is -2.53%.
`CCCC(=O)NCCc1cc(OC)c(OC)cc1Br`: the “hERG current change (%, negative = inhibition) at 10uM” value stood at 5.13%.
On to `CCOC(=O)N1CCN(C(=S)NC(C)(C)C)CC1`, for which the “hERG current change (%, negative = inhibition) at 10uM” value was -7.63%.
For `CN(C)C(=S)Nc1ccc2c(c1)OCCO2` the value was 5.41%.
For `CC(C)c1cc(Br)ccc1OCCCN1C(=O)NC(C)(C)C1=O` the value was -17%; for `COc1cc(OC)cc(C(=O)NCC(=O)OC2CCCCC2=O)c1` (stereo not shown), -27.6%.
To `C/C(=N\NC(=O)c1cccc(Br)c1)c1ccc(Br)cc1` belongs 16%; to `O=C(O)c1cccc(NC(=S)NC(NC(=O)c2ccco2)C(Cl)(Cl)Cl)c1` (stereo not shown), 2.71%; to `Cc1ccc(SCc2[nH]nc3c2C(c2ccc(C)o2)C(C#N)=C(N)O3)cc1` (stereo not shown), 16%.
In the case of `Cc1ccc(N=C2NC(=O)/C(=C\c3ccc(C)s3)S2)cc1`, the “hERG current change (%, negative = inhibition) at 10uM” value came out at 26.5%.
To `CC(C)[C@H](NC(=O)N1CCn2c1nc1ccccc12)C(=O)NC1CC1` belongs -29.6%; to `Cc1cc(Cl)cc(C)c1OCCCCCn1ccnc1`, -28.1%; to `Cc1ccc(N=C2NC(=O)CS2)cc1`, -1.52%.
To `C/C(=N\NC(=O)c1ccccc1C)c1ccc(N2CCOCC2)cc1` belongs 5.21%.
Turning to `O=C(CC(CC(=O)c1ccc(Cl)cc1)c1ccccc1C(=O)O)c1ccc(Cl)cc1`, the “hERG current change (%, negative = inhibition) at 10uM” value is recorded as -4.11%.
On to `CCCCN(CC)CCCNC(=O)c1cn(CC)c2ccc(S(=O)(=O)N3CCc4ccccc4C3)cc2c1=O`, for which the “hERG current change (%, negative = inhibition) at 10uM” value is -74.9%.
Turning to `O=C(c1cc(-c2ccc(Cl)cc2Cl)on1)N1CCOCC1`, the “hERG current change (%, negative = inhibition) at 10uM” value was -9.72%.
Take `CC12CC(NC(=O)N1CCc1ccccc1)c1ccccc1O2` (stereo not shown): the “hERG current change (%, negative = inhibition) at 10uM” value is listed as 2.05%.
For `CN(C)c1ccc(C=NCCc2ccc(S(N)(=O)=O)cc2)cc1` the value was 6.19%.
Take `CCC(=O)c1ccc(OCC(O)CN2CC(C)OC(C)C2)cc1.O=C(O)C(=O)O` (stereo not shown): the “hERG current change (%, negative = inhibition) at 10uM” value is given as 14%.
For `Cc1c(C(=O)C(=O)N2c3ccccc3CC2C)c2ccccc2n1C` (stereo not shown) the value was -13.3%; for `CC(C)(C)n1ncc2c(=O)n(CC(=O)N3CCCCC3)cnc21`, 22.9%.
For `O=C(CSc1nc2ccccc2c(=O)n1-c1ccccc1)N1CCc2ccccc2C1` the value was -23.3%.
For `Cc1ccc(C(=O)Nc2ccc3c4c(cccc24)CC3)cc1[N+](=O)[O-]`, the “hERG current change (%, negative = inhibition) at 10uM” value is -1.54%.
Take `CN1CCc2c(sc(/N=C/c3ccco3)c2C(N)=O)C1`: the “hERG current change (%, negative = inhibition) at 10uM” value is on record as -12.7%.
As for `CC1(C)N=C(c2ccc(Cl)cc2Cl)C(=O)N1`, the “hERG current change (%, negative = inhibition) at 10uM” value is recorded as -1.04%.
`O=C(Nc1cccc(Cl)c1)Nc1cc(S(=O)(=O)N2CCCCC2)ccc1Cl`: the “hERG current change (%, negative = inhibition) at 10uM” value is given as 17.9%.
For `COc1ccc(Nc2nc3ccccc3n3cnnc23)cc1`, the “hERG current change (%, negative = inhibition) at 10uM” value is -6.77%.
In the case of `O=C(NC1CCCCCCC1)C1CCN(S(=O)(=O)N2CCC3(CC2)OCCO3)CC1`, the “hERG current change (%, negative = inhibition) at 10uM” value came out at 2.09%.
For `CCOc1ccc(C(C)=O)cc1NC(=O)/C=C\C(=O)O` the value was -19.3%; for `CCCc1ncc(C[n+]2ccccc2C)c(N)n1.Cl.[Cl-]`, 14.7%; for `C#CCOCCOCCOCCNc1nc(N2CCN(C(=O)Cn3cc(CCO)nn3)CC2)nc(N2CCN(C(=O)[C@H](C(C)C)n3cc(CCO)nn3)CC2)n1`, 4.31%.
For `COc1ccc(C(=O)COC(=O)CCN2C(=O)[C@@H]3[C@H](C2=O)[C@@H]2C[C@H]3C(Br)C2Br)cc1` (stereo partly shown), the “hERG current change (%, negative = inhibition) at 10uM” value was 11.8%.
For `Cc1ccc(C(=O)N/N=C\c2ccc([N+](=O)[O-])s2)cn1` the value was -13.4%.
To `CCn1nc(C)cc1C(=O)N1CCCC(N(C)CCc2ccc(OC)c(OC)c2)C1` (stereo not shown) belongs -16.2%; to `COCCCn1c(N)c(C(=O)NCc2ccco2)c2nc3ccccc3nc21`, 4.53%.
To `COc1cccc(-c2nc(SC)nc3sc(C(=O)NC(C)(C)C)c(N)c23)c1` belongs 6.24%; to `COc1ccc(S(=O)(=O)Nc2ccc(-n3cnnn3)cc2)cc1[N+](=O)[O-]`, 0.00208%.
Consider `Cc1ccnc(SCC(=O)n2c3c(c4ccccc42)CC(C)CC3)n1` (stereo not shown), for which the “hERG current change (%, negative = inhibition) at 10uM” value turned out to be 6.83%.
For `CCn1nc(C)cc1C(=O)Sc1ccc(C)cc1` the value was 9.87%; for `CCC(=O)c1ccc(OC)c(OC)c1`, 16.3%.
To `COc1ccc(NC2CCCN(C(=O)c3cc4ncccn4n3)C2)cc1` (stereo not shown) belongs 17.9%; to `Cc1ccccc1-n1c(SC(C)C(=O)N2CCN(C)CC2)nc2ccccc2c1=O` (stereo not shown), -7.98%.
To `Cc1ccc(S(=O)(=O)NC(=O)c2ccc(Br)o2)cc1` belongs 12.1%; to `C/C(=N\Nc1ccc(F)cc1)c1ccc(N2CCOCC2)c(F)c1`, 4.72%; to `O=c1cccc2n1CC1CC2CN(c2ncnc3c2cnn3-c2ccc(Cl)cc2)C1` (stereo not shown), -62.1%.
Take `CCCC(C(=O)NC(C)(C)CC)N(Cc1ccco1)C(=O)CNS(=O)(=O)c1ccccc1` (stereo not shown): the “hERG current change (%, negative = inhibition) at 10uM” value is on record as -9.97%.
For `CC(Sc1nnc(N)s1)C(=O)Nc1ccc(N2CCOCC2)cc1` (stereo not shown) the value was 4.88%; for `Cc1ccc(S(=O)(=O)O)c(C)c1N1CCCC1=O`, 6.42%; for `COCCN1C=C(C(=O)OC)C(c2ccccc2C(F)(F)F)C(C(=O)OC)=C1`, -8.36%.
To `Cl.OC(COc1cccc2ccccc12)CN1CCN(c2ccccn2)CC1` (stereo not shown) belongs -49.2%; to `CC(=O)c1ccc(NC(=O)C2CCN(S(=O)(=O)c3cccnc3)CC2)cc1`, -7.82%.
To `O=C(O)c1ccc(/C=N/Nc2nc(N3CCCCC3)nc(N3CCCCC3)n2)cc1` belongs 18.4%; to `COc1ccc(/C=N/NC(=O)c2nnn(-c3nonc3N)c2-c2cccs2)cc1OC`, 5.4%.
Regarding `CCOc1cccc2sc(=NC(=O)c3ccc(S(=O)(=O)N4CCOCC4)cc3)n(C)c12`, the “hERG current change (%, negative = inhibition) at 10uM” value amounted to 0.44%.
For `CCOCCc1nnc(NC(=O)c2ccc(OC)c(OC)c2)s1` the value was -0.919%; for `CCOC(=O)Nc1ccc2c(c1)N(C(=O)CCN(CC)CC)c1ccccc1CC2`, -50.3%; for `CCOc1ccc(CNC(=O)CCCc2cn(C)c3ccccc23)cc1OC`, 2.54%.
To `Cc1ccc2c(c1)nnn2C1CCN(CC(=O)c2ccc(Cl)cc2)CC1` belongs -45.9%; to `CCn1c(=O)c2c(nc(SCC(=O)NC3CCCC3)n2C)n(C)c1=O`, 7.68%; to `COc1ccc(NC(=O)CC2CCCC2)cc1OC`, -1.29%.
Take `CN(C(=O)COC(=O)c1cc(-c2ccco2)nc2ccccc12)C1CCS(=O)(=O)C1` (stereo not shown): the “hERG current change (%, negative = inhibition) at 10uM” value was -24%.
As to `Cc1cccc(NC(=O)CCC(=O)N/N=C/c2ccco2)c1`, the “hERG current change (%, negative = inhibition) at 10uM” value is 0.913%.
In the case of `CCn1cc(C(=O)O)c(=O)c2cc(F)c(N3CCN(C(=S)NC(=O)c4ccc(F)c(F)c4)CC3)cc21`, the “hERG current change (%, negative = inhibition) at 10uM” value is 41.6%.
Consider `COC(=O)c1sccc1NC(=O)C1CC1`, for which the “hERG current change (%, negative = inhibition) at 10uM” value was 14.6%.
On to `FC(F)(F)c1cc(-c2ccco2)nc(NCc2cccs2)n1`, for which the “hERG current change (%, negative = inhibition) at 10uM” value is -1.51%.
For `O=[N+]([O-])c1ccc(N2CCN(S(=O)(=O)c3ccccc3)CC2)cc1N1CCc2ccccc2C1` the value was 22.9%; for `CCCC(CCC)c1nc2ccncc2[nH]1.O=C(O)C(=O)O`, 23.9%; for `Cc1ccccc1OCC(=O)N/N=C1\CC(=O)CC(C)(C)C1`, 5.61%.
